The whole screen tested about 44,000 compounds, of which about 340 (0.77%) were called active. Not shown: some 5% with an inconclusive outcome. Calls follow the shape of the dose curve; as a rule, active = well fitted inhibition curve with a large enough effect; inconclusive = small, poorly fitted or top-dose-only effect; inactive = flat fitted curve, though single readings scatter. The list shows a part of the results.
Test: Acumen qHTS Assay for Inhibitors of the mTORC1 Signaling Pathway in MEF (Tsc2-/-, p53-/-) Cells: Sytravon; also: nearly all actives have a fitted effect of over 50% in size;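 as to activity change, negative = inhibition: plate controls were DMSO for no effect and rapamycin for full effect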
Details: phospho-rpS6 immunofluorescence/PI, 24 h; series mostly up to 38.3 µM; activity change, negative = inhibition: at the top concentration
Method in brief: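 Tsc2-/-, p53-/- MEFs (empty-vector stable line) in DMEM + 10% FBS were treated with compounds 24 h at 37 degree Celsius, fixed, and immunostained for phospho-rpS6 (Alexa-488) with propidium iodide counterstain. Laser-scanning cytometry gave % positive cells, normalized against 7.5 nM rapamycin and DMSO.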
Potency is read from the fitted curve at half-maximal effect.

| SMILES | activity change, negative = inhibition | Potency |
| --- | --- | --- |
| COc1cc(NS(=O)(=O)c2ccc(NC(=O)C(C)Oc3ccc(Cl)cc3Cl)cc2)nc(OC)n1 (stereo not drawn) | inactive: 3.98% |  |
| O=C(Nc1cccc(C(F)(F)F)c1)C1CCN(c2nnc(-n3cccc3)s2)CC1 | inactive: 0.878% |  |
| COc1ccc(Nc2c(-c3ccc(Cl)cc3)nc3cnccn23)cc1OC | inactive: 0.532% |  |
| Cc1cc(C)cc(Oc2coc3c(CN4CCN(C)CC4)c(O)ccc3c2=O)c1 | inactive: -5.49% |  |
| O=C(NCc1ccccc1Cl)C1CCN(S(=O)(=O)c2ccc3c(c2)CCCN3C(=O)C2CCC2)CC1 | inactive: -3.21% |  |
| CCC12CN3CC(C)(CN(C1)C3c1ccc(O)cc1O)C2=O (stereo not drawn) | inactive: -6.07% |  |
| COc1cccc(C(=O)Nc2cc(-c3cn4cccnc4n3)ccc2C)c1OC | inactive: -0.616% |  |
| CCOc1ccc(NC(=O)c2sc3nc4c(cc3c2N)CCCCCC4)cc1 |  | active: 20.7 µM |
| Cc1nc2ccccn2c(=O)c1NC(=O)c1c(F)cccc1F | inactive: -4.9% |  |
| Cc1ccc(OCC(=O)Nc2ccccc2C(=O)OCc2cc(=O)n3nc(C4CC4)sc3n2)cc1 | inactive: 1.91% |  |
| O=C(c1cccs1)N(Cc1cccnc1)c1nc2ccc(F)cc2s1 | inactive: -2.7% |  |
| CCn1cc(S(=O)(=O)c2ccc(OC)cc2)c(=O)c2cc(F)c(N3CCC(C)CC3)cc21 | inactive: 0.0421% |  |
| CCCN(CCC)CCCNC(=O)C1CCC(CNS(=O)(=O)c2cccc3nsnc23)CC1 (stereo not drawn) | inactive: -9.34% |  |
| CCCCNS(=O)(=O)c1ccc2nc(-c3cccnc3)cc(C(=O)NCCC)c2c1 | inactive: 0.868% |  |
| Oc1ccc(-c2nc3ccccn3c2Nc2ccc3c(c2)OCCO3)cc1 | inactive: -11.5% |  |
| NCCCCCc1nnc(SCc2ccc(F)cc2)o1 | inactive: 6.67% |  |
| COCCNC(=O)CSc1c2c(nc3cc(Cl)ccc13)CCCC2 | inactive: -9.45% |  |
| CCCc1nn2c(=O)cc(COC(=O)c3cccc(NC(=O)CCc4ccccc4)c3)nc2s1 | inactive: 7.45% |  |
| COCCCNC(=O)c1ccc2nc(Cc3ccc(OC)cc3)oc2c1 | inactive: 1.64% |  |
| CCOc1ccc(CNC(=O)C2CCN(S(=O)(=O)N3CCCCC3)CC2)cc1 | inactive: 7.76% |  |
| CC(=O)Nc1nonc1-c1nnc(SCc2ccc(F)cc2)n1C | inactive: -12.7% |  |

| SMILES | activity change, negative = inhibition | Potency |
| --- | --- | --- |
| COc1ccc(NC(=O)COCc2cc(-c3ccco3)on2)cc1 | inactive: -5.11% |  |
| CCCCSc1nnc2n(-c3cccc(C)c3)c(=O)c3c4c(sc3n12)CCCC4 | inactive: -0.48% |  |
| Fc1ccccc1Oc1ncnc2c1oc1ccccc12 | inactive: -1.6% |  |
| Clc1ccc(-c2csc(=Nc3ccccc3)n2Cc2ccc3c(c2)OCO3)cc1 | inactive: -5.45% |  |
| Cc1cccc(OCc2nc(C#N)c(NCc3ccccc3Cl)o2)c1 | inactive: -12.6% |  |
| CCOC(=O)C1CCN(C(=O)CSc2n[nH]c(-c3ccccc3)n2)CC1 | inactive: -4.54% |  |
| Cc1ccc2nc(COc3ccc(NC(=O)COc4ccccc4F)cc3)cc(=O)n2c1 | inactive: 0% |  |
| COc1ccc(NC(=O)CSc2nc3ccccc3[nH]2)cc1 | inactive: -5.02% |  |
| Cc1ccc(C)c(N2CCN(C(=O)Cn3c(=O)c4cccn4c4ccc(F)cc43)CC2)c1 | inactive: -5.21% |  |
| Cc1ccc(NC(=O)CSCn2nnc3c(=O)[nH]c(Cc4ccc(F)cc4)nc32)c(C)c1 | inactive: 6.66% |  |
| Cc1cccc(N2CCN(C(=O)c3ccc4c(c3)N(Cc3ccccc3F)C(=O)c3ccccc3S4=O)CC2C)c1 (stereo not drawn) | inactive: -9.59% |  |
| COc1cc2c(=O)c(C(=O)c3ccc(C)c(C)c3)cn(Cc3ccccc3)c2cc1OC | inactive: -2.19% |  |
| Cc1cc(C)c2nc(NC(=O)c3ccc(S(=O)(=O)N4CCCC4)cc3)sc2c1 | inactive: -13.6% |  |
| COc1ccc(-c2cc3nc(C)c(CCC(=O)N4CCN(c5ccccc5)CC4)c(C)n3n2)c(OC)c1 | inactive: -8.42% |  |
| Cc1c(CC(=O)NCc2ccccc2)c(=O)oc2c(C)c(O)ccc12 | inactive: -16.6% |  |
| CCOc1cc(C2C(C(=O)OC)=C(C)NC3=C2C(=O)c2ccccc23)c(Br)cc1OC (stereo not drawn) | inactive: -0.348% |  |
| CCOCCCNC(=O)Cn1nc(C)n2c(cc3cc(C)ccc32)c1=O | inactive: 2.99% |  |
| CCCCN(CCCNC(=O)CN1N=C(c2ccccc2)CCC1=O)c1ccccc1 | inactive: 11.2% |  |
| O=C(COc1ccccc1Cl)Nc1nc2c(s1)CCCC2 | inactive: -3.38% |  |
| Cc1cccc(NC(=O)C2CCCN(S(=O)(=O)c3cccc4nonc34)C2)c1C (stereo not drawn) | inactive: -27.8% |  |
| Cc1cc2oc(=O)c(CC(=O)NCCc3ccccc3)c(C)c2c2occ(C(C)(C)C)c12 | inactive: -14.2% |  |

| SMILES | activity change, negative = inhibition | Potency |
| --- | --- | --- |
| Cc1cc(C(=O)O)c2c(=O)n(C)c(=O)n(C)c2n1 | inactive: -1.78% |  |
| COc1ccc(-c2cn3c(n2)sc2cc(C(=O)NC4CCCc5ccccc54)ccc23)cc1 (stereo not drawn) | inactive: 13% |  |
| COc1cc2c(cc1NC(=O)COc1cc(C)ccc1C)oc1ccccc12 | inactive: -0.791% |  |
| CCCCN(C)CCCNC(=O)c1ccc2nc(N3CCCCC3)sc2c1 | inactive: -11.3% |  |
| CCN(C(=O)CCc1nc(-c2ccc(C)cc2)no1)c1cc(C)ccc1C | inactive: -0.328% |  |
| CCN(Cc1ccccc1)Cc1c(O)ccc2c(=O)c(-c3ccccc3OC)c(C(F)(F)F)oc12 | inactive: -1.29% |  |
| Cc1cccc(OCCSc2nc3ccccc3n2CC(=O)N2CCCCC2)c1C | inactive: -0.338% |  |
| CCOC(=O)c1ccc(N2CCN(c3cc(Cl)ccc3C)CC2)c(NC(=O)Nc2cccc(OC)c2)c1 | inactive: 8.43% |  |
| CC(=O)Nc1nonc1-c1nnc(SCC(=O)Nc2ccc(F)cc2F)n1-c1ccccc1 | inactive: -14.6% |  |
| Cc1c(C)n(Cc2ccccc2)c2ccc(C(=O)NC(C)c3ccccc3)cc12 (stereo not drawn) | inactive: -21.2% |  |
| Cc1ccc(Cn2c(CNS(=O)(=O)c3c(C)cc(C)cc3C)nc3cccnc32)cc1 | inactive: -24.9% |  |
| COc1ccc(N2CC(NC(=O)/C=C\c3ccc(OC)c(OC)c3)CC2=O)cc1 (stereo not drawn) | inactive: 1.54% |  |
| CCc1ccc(-n2c(SC(CC)C(=O)N(CC)CC)nc3n[nH]c(C)c3c2=N)cc1 (stereo not drawn) | inactive: -5.64% |  |
| Cc1nc(CC(=O)Nc2ccc(C)c(C)c2)cs1 | inactive: 3.92% |  |
| CCOC(=O)N1CCN(S(=O)(=O)N2CCCC(C(=O)NCc3cc(OC)ccc3OC)C2)CC1 (stereo not drawn) | inactive: 4.26% |  |
| CCOCCCNC(=O)C1CCCN(Cc2nc(-c3ccc(CC)cc3)oc2C)C1 (stereo not drawn) | inactive: -7.93% |  |
| CCc1ccc(OCC(=O)N(Cc2cccs2)c2ccc(Cl)cc2)cc1 | inactive: -9.68% |  |
| CCn1ccc2cc(S(=O)(=O)N3CCCN(C(=O)Nc4ccccc4OC)CC3)ccc21 | inactive: -4.64% |  |
| CCc1cccc(CC)c1NC(=O)Cn1nnc2sc(-c3ccccc3)cc2c1=O | inactive: 0.896% |  |
| COc1ccc(N2CCN(C(CNC(=O)CC(C)C)c3ccc4c(c3)OCO4)CC2)cc1 (stereo not drawn) | inactive: -3.75% |  |
| COc1ccc(-c2nc(CS(=O)CC(=O)NCc3ccc(F)cc3)c(C)o2)cc1OC (stereo not drawn) | inactive: -0.0405% |  |

From PubChem BioAssay AID493208 (National Center for Advancing Translational Sciences (NCATS), 2011)
